The series is described as follows: Circular dichroism (CD) spectroscopy with variable temperature measurement. The class given is physicochemical. As for the experimental part: The Z variant Z15171-Cys (SEQ ID NO:5), was diluted to 0.5 mg/ml in 20 mM HEPES, 1 mM EDTA, pH 7.2. A CD spectrum at 250-195 nm was obtained at 20° C. In addition, a variable temperature measurement (VTM) was performed to determine the melting temperature (Tm). In the VTM, the absorbance was measured at 221 nm while the temperature was raised from 20 to 90° C., with a temperature slope of 5° C./min. A new CD spectrum was obtained at 20° C. after the heating procedure in order to study the refolding ability of the Z variants. The CD measurements were performed on a Jasco J-810 spectropolarimeter (Jasco Scandinavia AB) using a cell with an optical path length of 1 mm. The His-tagged Z variants Z13178 (SEQ ID NO:2) and Z13398 (SEQ ID NO:4) were analyzed by CD spectroscopy as described above, but with the exceptions that PBS was used as analysis buffer and the temperature was raised to 80° C. in the VTM.
On the technique in general: Circular dichroism is widely used to follow secondary structure.

The text below walks through data of US10364280B2, “Polypeptide” (AFFIBODY AB, priority 2015, dated 2019).

B1: Z15171-Cys: Z15171 subcloned with a C-terminal cysteine, encoding sequence Z15171-VDC (SEQ ID NO:5) (protein)
chain: AEAKYAKERTVAVWEIVQLPNLTAWQKGAFINKLHDDPSQSSELLSEAKKLNDSQAPKVDC
modifications: Engineered PD-L1 binding polypeptide
B1: where the note is “CD at 221 nm, VTM, Z15171-Cys in HEPES/EDTA pH 7.2, 20 to 90° C., His-tagged Z13178, Z13398 in PBS, to 80° C.”, the “Tm (° C.)” value turned out to be 51 °C. For the same molecule, the “refolding after heating (CD spectra before and after VTM)” value (spectra at 20° C. before and after heating) is listed as “Reversible folding”.
